Data: patent US20240158504A1 (BJ BIOSCIENCE, published 2024)

Molecular target: TGF-β1
Assay: cell-based or functional assay

IC50 (nM), SEAP level of HEK-Blue TGF-β cells stimulated with TGF-β1: 0.0587 nM
B1: BJ-005-P4 (other)
heavy: QVQLQESGPGLVKPSETLSLTCTVTGDSITSGYWNWIRQPAGKGLEYMGYISYTGSTYYNPSLKSRLTISRDTSKNQYSLKLSSVTAADTAVYYCGSQREWLLHTDYWGQGTLVTVSSASTKGPSVFPLAPSSKSTSGGTAALGCLVKDYFPEPVTVSWNSGALTSGVHTFPAVLQSSGLYSLSSVVTVPSSSLGTQTYICNVNHKPSNTKVDKRV[human IgG1 Fc and a few adjoining residues not listed]GGGSGGGGSGGGGSGGGGSTIPPHVQKSVNNDMIVTDNNGAVKFPQLCKFCDVRFSTCDNQKSCMSNCSITSICEKPQEVCVAVWRKNDENITLETVCHDPKLPYHDFILEDAASPKCIMKEKKKPGETFFMCSCSSDECNDNIIFSEEYNTSNPD
light: DIVMTQSPDSLAVSLGERATINCKSSQSLLYTSNQKNSLAWYQQKPGQPPKLLIYWASTRESGVPDRFSGSGSGTDFTLTISSLQAEDVAVYYCQQYYGYPYTFGQGTKLEIKRTVAAPSVFIFPPSDEQLKSGTASVVCLLNNFYPREAKVQWKVDNALQSGNSQESVTEQDSKDSTYSLSSTLTLSKADYEKHKVYACEVTHQGLSSPVTKSFNRGEC
